Reference: PubChem BioAssay AID686979 (National Center for Advancing Translational Sciences (NCATS), 2013)
Values joined by “and” are separate entries in the source; they are usually repeats but may differ in a detail not shown here. Equal entries are not always repeated. Among all 420,000 compounds or so, about 50,000 (12%) were called active. This list was built around the results that the source calls inconclusive (neither active nor inactive); the mix of calls is not that of the screen. Calls come from the whole dose curve; as a rule, active = well fitted inhibition curve with a large enough effect; inconclusive = small, poorly fitted or top-dose-only effect; inactive = flat fitted curve, though single readings scatter. Potencies of inconclusive entries are left out as doubtful fits.

Test: qHTS for Inhibitors of human tyrosyl-DNA phosphodiesterase 1 (TDP1): qHTS in cells in presence of CPT; note: nearly all actives have a fitted effect of over 55% in size
Details: chicken DT40 Tdp1-/-;hTDP1 cells + 20 nM CPT, ATP luminescence, 48 h; activity change, negative = growth inhibition: at 46.2 µM (top of the series) unless noted
In short: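 Chicken DT40 Tdp1-/- cells complemented with human TDP1, 400 cells/well, exposed to compounds plus 20 nM camptothecin for at least 48 h at 37 C; viability read as ATP content by CellTiter-Glo luminescence.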
% is set by controls: 0 for no effect and ±100 for the full control effect; potency is the fitted concentration of half-maximal effect; tags give direction and shape of the fitted curve.

SMILES	Potency	activity change, negative = growth inhibition
O=C(N/N=C/c1cc(O)ccc1Br)c1cccnc1	active: 5.8 µM	
COc1ccc(C2c3cc(OC)c(OC)cc3CC(=O)N2c2cccc(C#N)c2)cc1 (stereo not given)	inconclusive [inhibitor, single point]	
CC(=O)Nc1ccc(/C(C)=N/Nc2nc(Nc3cccc4ccccc34)nc(N3CCOCC3)n2)cc1	active: 20.6 µM	
COC(=O)C(c1ccccc1)N(Cc1cccc(CN(C(C(=O)OC)c2ccccc2)S(C)(=O)=O)c1)S(C)(=O)=O (stereo not given)	inconclusive [inhibitor, single point]	
CCOC(=O)c1cccc(NC(=O)c2cc(C)nc3c2c(C)nn3-c2ccc(C)cc2)c1	inconclusive [inhibitor, single point]	
Cc1cccnc1NC(=O)CCn1c(=O)oc2ccccc21		inactive: -20.4%
O=C(Nc1ccc(-n2cnnn2)cc1)c1cn2ccccc2n1		inactive: -14.6%
Cc1c([N+](=O)[O-])cnc(Sc2ccccc2)c1[N+](=O)[O-]	inconclusive [inhibitor, single point]	
CN(C(=O)c1ccc(NC(=O)Cc2ccc(NC(=O)C3CCCN(C(=O)C4CCC4)C3)cc2)cc1)C1CC1 (stereo not given)		inconclusive: -31.6% [inhibitor]
CCOC(=O)c1ccc(NC(=O)C2=C(C)C(=O)OC23CCN(C(C)=O)CC3)cc1		inactive: 27.1%
Oc1ccccc1-c1nc(NCC2CCCO2)c2ccccc2n1 (stereo not given)	inconclusive [inhibitor, single point]	
CC(=O)Nc1ccc(C=C(C#N)c2ccc(C)cc2)cc1		inactive: 7.84%
Cc1c(Cl)cccc1NC(=O)COC(=O)c1c2c(nc3ccccc13)CCN(Cc1ccccc1)C2	inconclusive [inhibitor, single point]	
O=C(NCCc1ccc(Cl)cc1)C12CC3CC(CC(O)(C3)C1)C2		inactive: 12.7%
CCC(C)NCCCCOc1ccc(Cl)cc1C (stereo not given)	inconclusive [inhibitor, single point]	
Cc1ccccc1Cn1ccc(NC(=O)c2cnn3cccnc23)n1	inconclusive [inhibitor, partial curve]	
CCCCNC(=O)Nc1nc2ccc(CC)cc2s1	inconclusive [inhibitor, partial curve]	
COc1ccc(-c2onc(C)c2-c2ccc(C(=O)OC(C)C)o2)c(O)c1	active: 20.6 µM	
O=C(O)c1c2c(nc3ccccc13)-c1ccccc1CC2		inactive: -4.15%
CON		inactive: 2.81%
O=C(N[C@@H](Cc1ccc(O)cc1)C(=O)O)c1ccc(C(F)(F)F)cc1		inactive: 2.5%
CCOc1ccc(NC(=O)C2CCCN(S(=O)(=O)c3ccc4c(c3)CCCN4C(C)=O)C2)cc1 (stereo not given)		inactive: 0.501%
CC(=O)c1sc2nc(-c3ccc(C)cc3)c3c(c2c1N)CCCC3	inconclusive [inhibitor, single point]	
CCN1CCN(C(=O)c2nn(-c3ccc(OC)cc3)c(=O)c3c2c2ccccc2n3C)CC1		inactive: -14.1%
Cn1c(=O)c2[nH]c(CSCc3ccccc3)nc2n(C)c1=O	inconclusive [inhibitor, single point]	

SMILES	Potency	activity change, negative = growth inhibition
CC(=O)Nc1ccc(C2NC(=O)CCC2[N+](=O)[O-])cc1 (stereo not given)		inactive: 12.6%
CCCCNC(=O)c1ccccc1SCc1c(C)noc1C	inconclusive [inhibitor, partial curve, poor fit]	
C[C@H](NC(=O)c1nc[nH]c1C(=O)N[C@@H](Cc1ccccc1)C(=O)OCc1ccccc1)c1ccccc1	inconclusive [inhibitor, single point]	
Cn1ncc2c(Nc3cccc(C#N)c3)ncnc21	inconclusive [inhibitor, single point]	
O=C(CN1C(=O)C2CCCCN2C(=O)c2ccccc21)Nc1ccc(F)cc1 (stereo not given)		inconclusive: -32.6% [inhibitor]
CCc1cccc(C)c1NC(=O)CSc1n[nH]c(-c2ccccc2)n1	inconclusive [inhibitor, single point]	
CC(=O)c1c[nH]c(C(=O)NCC2CCCO2)c1 (stereo not given)		inactive: -2.45%
CC(C)CN1CCCC2(CCN(C(=O)c3cnccn3)CC2)C1		inactive: 1.01%
O=C(CSc1ccccc1)Nc1nnc(/C=C/c2ccccc2)s1		inconclusive: -32.8% [inhibitor]
O=C(OCc1ccccc1)N1CCC2CC1c1cc(NCCc3ccccc3)ccc12 (stereo not given)	inconclusive [inhibitor, single point]	
Nc1nc(CSC(=S)N2CCN(c3ccccc3)CC2)nc(Nc2ccccc2)n1	active: 23.1 µM	
CCOc1ccc(CCN2C(=O)C(=O)N([C@@H](CC(C)C)CN3CCC[C@H]3CN3C(=O)C(=O)NC[C@@H]3Cc3ccccc3)C[C@@H]2Cc2ccc(O)cc2)cc1	inconclusive [inhibitor, single point]	
CCOc1ccc(C(C)=O)cc1CN1c2ccc(S(N)(=O)=O)cc2CC1C (stereo not given)	inconclusive [inhibitor, single point]	
COc1cc(/C=N/Nc2nc(=O)[nH]nc2C)cc([N+](=O)[O-])c1O		inactive: -1.61%
CCN1CCN(c2ccc(NC(=O)c3ccc(Cl)c(N4CCCC4=O)c3)cc2)CC1		inactive: 2.59%
CCc1ccccc1S(=O)(=O)Cc1ccc(C(=O)N2CCN(c3ccccc3OC)CC2)o1	active: 8.2 µM	
CC(C)NC(=O)N(O)C1N(Cc2ccc3c(c2)OCO3)C(=S)SC1(C)C (stereo not given)	inconclusive [inhibitor, single point]	
Cc1cc(C)cc(NC(=O)C(=O)NCC(c2cccnc2)N2CCOCC2)c1 (stereo not given)		inactive: -0.692%
CC(C)OC(=O)c1ccc(NCc2cc(O)ccc2O)cc1	active: 1.16 µM	
COc1cc(NS(=O)(=O)c2ccc(Br)cc2)c(OC)cc1NC(=O)c1ccco1	inconclusive [inhibitor, single point]	
CCOC(=O)c1c(C)c(C(=O)Nc2ccc3c(c2)OCCO3)c(C)n1CC	active: 10 µM	
Cc1nc(-c2ccccc2)nc(Cl)c1Cl		inactive: -23.7%
O=C(Nc1cc(C(F)(F)F)ccc1N1CCOCC1)C1Cc2ccccc2CN1C(=O)c1ccco1 (stereo not given)	active: 16.4 µM	
O=C1C=C(c2cccc3c2sc2ccccc23)C[C@@H](c2ccc(Cl)cc2)C1	inconclusive [inhibitor, single point]	
C/C(=N\NC(=O)c1ccc(NS(=O)(=O)c2cccs2)cc1)c1ccc2ccccc2c1	inconclusive [inhibitor, single point]	

SMILES	Potency	activity change, negative = growth inhibition
Cc1nc(Nc2ncc(C(=O)Nc3c(C)cccc3Cl)s2)cc(N2CCN(CCO)CC2)n1	active: 2.82 µM and active: 2.11 µM	
COc1ccc(-c2sc3ccc(N4CCOCC4)cc3c2C#CC(C)(C)O)cc1	active: 20.6 µM	
Cc1ccnc(NS(=O)(=O)c2ccc(NC(=O)CN3C(=O)c4ccccc4S3(=O)=O)cc2)n1		inactive: 1.55%
COc1ccccc1NC(=O)[C@@H]1CCCN1S(=O)(=O)c1ccc(Cl)cc1	inconclusive [inhibitor, single point]	
CCC[C@H]1COCCS(=O)(=O)N1Cc1ccccc1	inconclusive [inhibitor, single point]	
CCOCCCNC(=O)C(NC(=O)C1CCC(=O)N1)c1ccc(C)cc1 (stereo not given)		inactive: -2.88%
COc1ccc(-n2nc(C(=O)NCC(=O)NC3CCCC(C)C3C)c3ccccc3c2=O)c(OC)c1 (stereo not given)	inconclusive [inhibitor, single point]	
COc1ccc(Cl)cc1NC(=O)NC1CCCCC1		inactive: -13.5%
Cc1ccccc1/C=C/C12NC(=O)CN1c1ccccc1C2(C)C (stereo not given)		inactive: -22.1%
CC(=O)N1CCN(CC(O)COc2ccc(Br)cc2)CC1 (stereo not given)		inactive: -0.679%
CCN(CCO)CCCC(C)Nc1ccnc2cc(Cl)ccc12 (stereo not given)	active: 2.59 µM	
c1ccc(OCCNc2nc(NCC3CC3)nc3cc(-c4ccccc4)sc23)cc1	active: 5.8 µM	
CCOc1cc(C(=O)Nc2ccc(C)cc2O)ccc1OCC(=O)N1CCOCC1		inactive: -27.5%
CCCCNC(=S)N/N=C/c1cc(C)ccc1C	active: 5.17 µM	
COc1ccc(Cl)cc1NC(=O)Cn1c(=O)n(Cc2ccc(F)cc2)c(=O)c2cccnc21	inconclusive [inhibitor, partial curve, poor fit]	
CCC(C(=O)NCCC(C)C)N(C(=O)Cn1nnc(-c2ccc(C)cc2)n1)c1cccc(O)c1 (stereo not given)	inconclusive [inhibitor, single point]	
Cc1ccc(NC(=O)Cn2c(=O)n(CCC(C)C)c(=O)c3cccnc32)cc1C	inconclusive [inhibitor, partial curve]	
CC(C)(C)c1ccc(NC(=O)NCc2ccco2)cc1	inconclusive [inhibitor, single point]	
CCOC(=O)c1ccc(NC(=O)Cn2cccc2)cc1	active: 14.6 µM	
COCCOC(=O)N1CCCCC1c1cc(C(=O)NCc2ccc(Cl)c(Cl)c2)no1 (stereo not given)	active: 14.6 µM	
CCOC(=O)[C@H]1[C@H]2COc3ccc(Br)cc3[C@H]2N2C(=O)CN(Cc3ccc(C)cc3)C(=O)[C@@]12C	inconclusive [inhibitor, partial curve]	
CCN(CC(=O)Nc1ccc(C)c(S(=O)(=O)N2CCOCC2)c1)Cc1ccccc1	active: 20.6 µM	
O=C(CCc1ccccc1)Nc1cccnc1		inactive: 5.09%
COc1ccccc1N1CCN(C(=O)Cn2c(=O)nc(-c3ccccc3)c3ccccc32)CC1	inconclusive [inhibitor, single point]	
O=C(C1CSC2(c3ccc(F)cc3)CCC(=O)N12)N1CCCCCC1 (stereo not given)	inconclusive [inhibitor, single point]	
